Measured values published in paper PMC11024157.
These are yes or no findings as the source states them, for the method shown. Binding seen in cells or lysates may run through a third protein. Some entries that bind do so weakly or less than the wild type. For some assays here: Tags and fused reporters may be left off the sequences shown.

The chains behind the UniProt entries cited, without tags or fusion partners. Where a name states a change or a piece, a line headed by the entry shows the natural chain unless it says otherwise.
UniProt O43791: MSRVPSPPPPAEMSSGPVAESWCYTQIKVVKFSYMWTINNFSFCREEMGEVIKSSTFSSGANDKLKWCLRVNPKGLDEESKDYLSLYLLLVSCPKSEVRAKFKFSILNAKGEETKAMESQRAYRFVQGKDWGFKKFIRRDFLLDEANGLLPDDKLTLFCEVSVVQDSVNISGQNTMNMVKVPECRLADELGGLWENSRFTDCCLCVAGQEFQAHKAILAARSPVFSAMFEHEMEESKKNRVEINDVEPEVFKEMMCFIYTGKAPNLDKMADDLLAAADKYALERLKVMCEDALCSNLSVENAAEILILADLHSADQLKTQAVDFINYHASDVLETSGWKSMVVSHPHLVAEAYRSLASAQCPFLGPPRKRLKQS
UniProt O96017: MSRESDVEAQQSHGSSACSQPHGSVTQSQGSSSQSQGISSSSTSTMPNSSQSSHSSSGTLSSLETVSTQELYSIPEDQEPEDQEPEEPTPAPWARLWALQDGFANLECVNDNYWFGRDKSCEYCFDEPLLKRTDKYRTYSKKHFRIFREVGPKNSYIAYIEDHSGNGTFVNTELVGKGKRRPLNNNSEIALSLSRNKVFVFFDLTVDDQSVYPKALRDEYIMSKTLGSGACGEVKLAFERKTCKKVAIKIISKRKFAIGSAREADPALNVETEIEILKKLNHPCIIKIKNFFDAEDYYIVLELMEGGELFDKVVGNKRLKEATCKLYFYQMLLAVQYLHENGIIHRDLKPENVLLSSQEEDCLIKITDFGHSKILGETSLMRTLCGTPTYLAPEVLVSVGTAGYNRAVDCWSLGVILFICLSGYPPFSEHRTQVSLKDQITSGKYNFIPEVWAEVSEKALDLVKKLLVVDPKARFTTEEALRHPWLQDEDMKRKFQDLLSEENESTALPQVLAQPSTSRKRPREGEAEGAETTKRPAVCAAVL
UniProt Q13619: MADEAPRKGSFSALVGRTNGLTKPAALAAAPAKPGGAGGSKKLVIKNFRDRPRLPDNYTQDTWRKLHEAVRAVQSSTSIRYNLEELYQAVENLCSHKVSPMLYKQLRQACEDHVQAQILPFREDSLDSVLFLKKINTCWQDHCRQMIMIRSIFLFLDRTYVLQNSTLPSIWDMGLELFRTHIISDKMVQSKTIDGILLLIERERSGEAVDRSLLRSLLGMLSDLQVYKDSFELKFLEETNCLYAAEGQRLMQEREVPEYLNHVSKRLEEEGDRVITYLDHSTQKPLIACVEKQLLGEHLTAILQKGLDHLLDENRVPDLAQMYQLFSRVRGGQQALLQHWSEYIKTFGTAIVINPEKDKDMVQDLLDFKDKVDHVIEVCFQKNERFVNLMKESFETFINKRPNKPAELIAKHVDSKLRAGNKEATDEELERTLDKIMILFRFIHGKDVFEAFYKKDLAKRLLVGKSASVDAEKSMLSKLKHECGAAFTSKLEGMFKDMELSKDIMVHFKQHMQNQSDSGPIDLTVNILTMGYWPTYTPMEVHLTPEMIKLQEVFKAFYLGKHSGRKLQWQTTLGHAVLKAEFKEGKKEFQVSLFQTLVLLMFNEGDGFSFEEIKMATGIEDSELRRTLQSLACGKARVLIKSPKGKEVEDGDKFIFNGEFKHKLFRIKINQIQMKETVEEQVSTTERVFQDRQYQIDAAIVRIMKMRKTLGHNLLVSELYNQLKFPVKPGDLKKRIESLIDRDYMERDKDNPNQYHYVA
UniProt Q14145: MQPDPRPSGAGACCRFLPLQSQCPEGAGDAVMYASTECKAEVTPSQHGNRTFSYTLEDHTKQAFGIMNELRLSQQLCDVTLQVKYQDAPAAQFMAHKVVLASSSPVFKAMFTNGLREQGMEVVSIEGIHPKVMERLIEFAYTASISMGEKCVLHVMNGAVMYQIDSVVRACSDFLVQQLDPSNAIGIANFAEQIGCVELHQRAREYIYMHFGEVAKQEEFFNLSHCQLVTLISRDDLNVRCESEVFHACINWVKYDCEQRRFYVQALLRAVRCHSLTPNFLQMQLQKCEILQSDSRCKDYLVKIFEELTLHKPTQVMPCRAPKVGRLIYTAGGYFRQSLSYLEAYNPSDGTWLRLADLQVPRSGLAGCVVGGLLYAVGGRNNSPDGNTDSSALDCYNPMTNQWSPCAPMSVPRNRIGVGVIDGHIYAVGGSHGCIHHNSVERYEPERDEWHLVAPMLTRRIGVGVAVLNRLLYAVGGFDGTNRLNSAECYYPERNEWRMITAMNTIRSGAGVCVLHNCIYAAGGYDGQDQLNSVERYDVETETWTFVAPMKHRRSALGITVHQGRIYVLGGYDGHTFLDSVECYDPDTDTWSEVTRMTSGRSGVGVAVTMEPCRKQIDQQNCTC

What was measured:
Xp/His-ELK3 [1] = target: T1, Xp/His-ELK3 (UniProt P41970); assay: co-IP; lysates of HEK293T cells transiently transfected with the indicated plasmids, most panels treated with MG132 (10 μM) for 4 h; docetaxel (300 nM) in Fig. 7d; IP and WB (Fig. 2a: IP with Xpress antibody, WB with Myc antibody)
T1 sequence: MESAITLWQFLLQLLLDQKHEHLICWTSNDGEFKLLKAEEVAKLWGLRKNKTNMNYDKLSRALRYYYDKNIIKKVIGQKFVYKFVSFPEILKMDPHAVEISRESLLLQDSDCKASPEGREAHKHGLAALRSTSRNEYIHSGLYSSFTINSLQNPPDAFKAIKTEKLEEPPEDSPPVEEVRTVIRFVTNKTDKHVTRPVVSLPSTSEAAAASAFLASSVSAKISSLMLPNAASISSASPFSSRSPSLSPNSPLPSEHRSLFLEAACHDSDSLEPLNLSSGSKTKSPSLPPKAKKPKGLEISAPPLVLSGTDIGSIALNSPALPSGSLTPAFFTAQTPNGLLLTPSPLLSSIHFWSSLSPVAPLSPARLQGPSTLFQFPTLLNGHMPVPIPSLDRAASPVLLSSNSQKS

[2] = target: T2, ELK3 (endogenous) (human (endogenous in HeLa)) (UniProt P41970); assay: co-IP; endogenous proteins; lysates of HeLa cells treated with MG132 (10 μM) for 8 h; IP and WB
T2 sequence: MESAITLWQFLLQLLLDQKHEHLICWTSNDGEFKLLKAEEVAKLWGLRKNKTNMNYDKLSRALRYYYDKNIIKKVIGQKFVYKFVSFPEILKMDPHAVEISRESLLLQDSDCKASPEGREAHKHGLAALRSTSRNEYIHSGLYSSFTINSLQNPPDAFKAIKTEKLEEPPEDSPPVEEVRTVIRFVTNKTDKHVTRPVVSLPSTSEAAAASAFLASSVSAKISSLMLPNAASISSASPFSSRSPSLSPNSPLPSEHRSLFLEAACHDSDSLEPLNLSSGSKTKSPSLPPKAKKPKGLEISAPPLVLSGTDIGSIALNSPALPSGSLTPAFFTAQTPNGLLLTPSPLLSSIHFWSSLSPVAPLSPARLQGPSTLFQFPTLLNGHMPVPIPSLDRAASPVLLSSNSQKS

Xp/His-ELK3 [3] = target: T1, Xp/His-ELK3; assay: condition: only cells treated with 5 μM AZD7762 for 12 h; co-IP; transfected HEK293T cells treated with 5 μM AZD7762 (CHK1/2 inhibitor) for 12 h and MG132 (10 μM) for 4 h; IP and WB
Xp/His-ELK3 [4] = target: T1, Xp/His-ELK3; assay: condition: only cell lysates treated with λ-phosphatase; co-IP; lysates of transfected HEK293T cells treated with λ-phosphatase before IP and WB
His-ELK3-S133D = target: T3, His-ELK3-S133D (UniProt P41970); assay: co-IP; lysates of HEK293T cells transiently transfected with the indicated plasmids, most panels treated with MG132 (10 μM) for 4 h; docetaxel (300 nM) in Fig. 7d; IP and WB (Fig. 2a: IP with Xpress antibody, WB with Myc antibody)
T3 sequence: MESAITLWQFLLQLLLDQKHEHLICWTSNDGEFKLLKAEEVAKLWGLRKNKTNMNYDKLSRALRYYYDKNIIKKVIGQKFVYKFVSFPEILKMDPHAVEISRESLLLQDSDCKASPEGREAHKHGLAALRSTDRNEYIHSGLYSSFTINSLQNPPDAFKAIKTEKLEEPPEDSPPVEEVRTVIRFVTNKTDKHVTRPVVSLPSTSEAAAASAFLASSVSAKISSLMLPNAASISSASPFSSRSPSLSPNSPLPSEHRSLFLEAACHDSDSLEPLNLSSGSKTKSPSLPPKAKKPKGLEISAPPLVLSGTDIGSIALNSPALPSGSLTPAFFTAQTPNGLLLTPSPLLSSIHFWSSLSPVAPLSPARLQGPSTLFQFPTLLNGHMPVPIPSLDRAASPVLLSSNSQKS

ELK3-ΔDeg2 = target: T4, ELK3-ΔDeg2 (UniProt P41970); assay: as above
T4 sequence: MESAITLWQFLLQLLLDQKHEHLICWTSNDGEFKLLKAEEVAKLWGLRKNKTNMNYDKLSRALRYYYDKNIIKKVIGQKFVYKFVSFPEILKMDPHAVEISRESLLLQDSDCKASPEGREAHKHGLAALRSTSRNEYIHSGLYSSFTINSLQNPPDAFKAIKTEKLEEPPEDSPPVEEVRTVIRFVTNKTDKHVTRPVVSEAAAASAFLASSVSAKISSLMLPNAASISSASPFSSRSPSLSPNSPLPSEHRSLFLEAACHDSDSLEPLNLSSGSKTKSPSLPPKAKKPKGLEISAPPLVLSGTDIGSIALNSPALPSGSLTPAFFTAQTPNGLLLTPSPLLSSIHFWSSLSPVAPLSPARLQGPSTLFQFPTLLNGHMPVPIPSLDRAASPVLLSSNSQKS

His-ELK3-S133A = target: T5, His-ELK3-S133A (UniProt P41970); assay: as above
T5 sequence: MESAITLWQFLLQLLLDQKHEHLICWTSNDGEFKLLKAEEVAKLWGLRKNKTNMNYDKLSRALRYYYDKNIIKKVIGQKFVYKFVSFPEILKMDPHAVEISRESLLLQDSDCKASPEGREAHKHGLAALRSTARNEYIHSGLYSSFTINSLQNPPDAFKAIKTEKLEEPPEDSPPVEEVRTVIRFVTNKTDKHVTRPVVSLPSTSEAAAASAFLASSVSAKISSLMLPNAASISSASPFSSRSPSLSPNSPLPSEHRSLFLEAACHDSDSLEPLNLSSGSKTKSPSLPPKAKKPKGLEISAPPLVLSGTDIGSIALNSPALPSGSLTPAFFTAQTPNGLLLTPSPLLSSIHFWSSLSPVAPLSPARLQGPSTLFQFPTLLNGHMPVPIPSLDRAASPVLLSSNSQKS

ELK4 = target: T6, ELK4 (UniProt P28324); assay: as above
T6 sequence: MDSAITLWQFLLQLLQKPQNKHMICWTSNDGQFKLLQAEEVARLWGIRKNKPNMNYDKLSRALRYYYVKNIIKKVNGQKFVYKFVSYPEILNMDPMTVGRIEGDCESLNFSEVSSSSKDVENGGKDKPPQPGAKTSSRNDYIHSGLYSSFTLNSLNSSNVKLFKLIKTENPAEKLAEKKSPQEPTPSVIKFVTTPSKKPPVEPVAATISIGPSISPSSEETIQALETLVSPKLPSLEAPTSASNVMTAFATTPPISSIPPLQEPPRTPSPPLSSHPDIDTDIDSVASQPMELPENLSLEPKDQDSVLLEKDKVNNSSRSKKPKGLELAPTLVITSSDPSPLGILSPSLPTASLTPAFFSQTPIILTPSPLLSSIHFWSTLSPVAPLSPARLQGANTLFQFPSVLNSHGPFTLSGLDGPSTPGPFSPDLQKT

ELK1 = target: T7, ELK1 (UniProt P19419); assay: as above
T7 sequence: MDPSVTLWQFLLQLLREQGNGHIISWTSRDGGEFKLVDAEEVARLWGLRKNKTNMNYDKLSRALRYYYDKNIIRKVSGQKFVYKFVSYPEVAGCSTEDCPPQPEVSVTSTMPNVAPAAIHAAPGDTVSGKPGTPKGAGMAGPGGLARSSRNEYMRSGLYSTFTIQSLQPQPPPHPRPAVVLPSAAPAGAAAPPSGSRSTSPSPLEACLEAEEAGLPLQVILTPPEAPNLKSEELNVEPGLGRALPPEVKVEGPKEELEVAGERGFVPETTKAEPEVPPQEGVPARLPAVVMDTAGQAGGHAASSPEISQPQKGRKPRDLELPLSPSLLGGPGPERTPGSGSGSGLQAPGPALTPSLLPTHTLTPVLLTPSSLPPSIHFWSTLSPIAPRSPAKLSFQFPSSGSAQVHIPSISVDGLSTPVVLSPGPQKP

[5] = target: GST-SPOP (bacterially expressed) (UniProt O43791); assay: pull-down; partially purified bacterial SPOP (GST-SPOP in the text, His-SPOP in the legend) with lysate of HEK293T cells transfected with His-ELK3 plasmid; pulldown and WB; only the target purified
Xp/His-ELK3 [6] = target: T1, Xp/His-ELK3; assay: co-IP; lysates of HEK293T cells transiently transfected with the indicated plasmids, most panels treated with MG132 (10 μM) for 4 h; docetaxel (300 nM) in Fig. 7d; IP and WB (Fig. 2a: IP with Xpress antibody, WB with Myc antibody); remark: listed apart in the source

Question: Which binding (Xp/His-ELK3 [1]) does the source give for “CHK2 (from UniProt O96017 1-543) (enzyme)” here?
Answer: binds

Question: For CUL 4 A (from UniProt Q13619 1-759), which binding (Xp/His-ELK3 [1]) is on record?
Answer: no binding

Question: How did the binding (Xp/His-ELK3 [1]) turn out when HA-SPOP-wt (from UniProt O43791 1-374) was run?
Answer: binds

Question: How did the binding (Xp/His-ELK3 [1]) turn out when “Kelch-like ECH-associated protein 1 (from UniProt Q14145 1-624)” was run?
Answer: no binding

Question: With Myc-SPOP (from UniProt O43791 1-374) as the molecule, how does the binding (Xp/His-ELK3 [1]) read?
Answer: binds

Question: With “SPOP (endogenous) (from UniProt O43791 1-374)” as the molecule, how does the binding [2] read?
Answer: binds

Question: How did the binding (Xp/His-ELK3 [3]) turn out when “SPOP (transfected, tag not told for these panels) (from UniProt O43791 1-374)” was run?
Answer: no binding

Question: What about the binding (Xp/His-ELK3 [4]) of the same molecule?
Answer: no binding

Question: And the binding (His-ELK3-S133D)?
Answer: binds

Question: And the binding (ELK3-ΔDeg2)?
Answer: binds

Question: What about the binding (His-ELK3-S133A) of the same molecule?
Answer: no binding

Question: What about the binding (Xp/His-ELK3 [1]) of the same molecule?
Answer: binds

Question: And the binding (ELK4)?
Answer: no binding

Question: What about the binding (ELK1) of the same molecule?
Answer: no binding

Question: Which binding (Xp/His-ELK3 [1]) does the source give for SPOP-F133V (from UniProt O43791 1-374) here?
Answer: no binding

Question: Which binding (Xp/His-ELK3 [1]) does the source give for SPOP-W131G (from UniProt O43791 1-374) here?
Answer: no binding

Question: For SPOP-Y87C (from UniProt O43791 1-374), which binding (Xp/His-ELK3 [1]) is on record?
Answer: no binding

B1: Xp/His-ELK3 (protein, UniProt P41970 1-407)
chain: MESAITLWQFLLQLLLDQKHEHLICWTSNDGEFKLLKAEEVAKLWGLRKNKTNMNYDKLSRALRYYYDKNIIKKVIGQKFVYKFVSFPEILKMDPHAVEISRESLLLQDSDCKASPEGREAHKHGLAALRSTSRNEYIHSGLYSSFTINSLQNPPDAFKAIKTEKLEEPPEDSPPVEEVRTVIRFVTNKTDKHVTRPVVSLPSTSEAAAASAFLASSVSAKISSLMLPNAASISSASPFSSRSPSLSPNSPLPSEHRSLFLEAACHDSDSLEPLNLSSGSKTKSPSLPPKAKKPKGLEISAPPLVLSGTDIGSIALNSPALPSGSLTPAFFTAQTPNGLLLTPSPLLSSIHFWSSLSPVAPLSPARLQGPSTLFQFPTLLNGHMPVPIPSLDRAASPVLLSSNSQKS
Question: How did the binding [5] turn out when B1 was run?
Answer: binds

B2: KLHL2 (protein, UniProt O95198 1-593)
chain: METPPLPPACTKQGHQKPLDSKDDNTEKHCPVTVNPWHMKKAFKVMNELRSQNLLCDVTIVAEDMEISAHRVVLAACSPYFHAMFTGEMSESRAKRVRIKEVDGWTLRMLIDYVYTAEIQVTEENVQVLLPAAGLLQLQDVKKTCCEFLESQLHPVNCLGIRAFADMHACTDLLNKANTYAEQHFADVVLSEEFLNLGIEQVCSLISSDKLTISSEEKVFEAVIAWVNHDKDVRQEFMARLMEHVRLPLLPREYLVQRVEEEALVKNSSACKDYLIEAMKYHLLPTEQRILMKSVRTRLRTPMNLPKLMVVVGGQAPKAIRSVECYDFKEERWHQVAELPSRRCRAGMVYMAGLVFAVGGFNGSLRVRTVDSYDPVKDQWTSVANMRDRRSTLGAAVLNGLLYAVGGFDGSTGLSSVEAYNIKSNEWFHVAPMNTRRSSVGVGVVGGLLYAVGGYDGASRQCLSTVECYNATTNEWTYIAEMSTRRSGAGVGVLNNLLYAVGGHDGPLVRKSVEVYDPTTNAWRQVADMNMCRRNAGVCAVNGLLYVVGGDDGSCNLASVEYYNPTTDKWTVVSSCMSTGRSYAGVTVIDKPL
Question: How did the binding (Xp/His-ELK3 [6]) turn out when B2 was run?
Answer: no binding

B3: KLHL25 (protein, UniProt Q9H0H3 1-589)
chain: MSVSVHETRKSRSSTGSMNVTLFHKASHPDCVLAHLNTLRKHCMFTDVTLWAGDRAFPCHRAVLAASSRYFEAMFSHGLRESRDDTVNFQDNLHPEVLELLLDFAYSSRIAINEENAESLLEAGDMLQFHDVRDAAAEFLEKNLFPSNCLGMMLLSDAHQCRRLYEFSWRMCLVHFETVRQSEDFNSLSKDTLLDLISSDELETEDERVVFEAILQWVKHDLEPRKVHLPELLRSVRLALLPSDCLQEAVSSEALLMADERTKLIMDEALRCKTRILQNDGVVTSPCARPRKAGHTLLILGGQTFMCDKIYQVDHKAKEIIPKADLPSPRKEFSASAIGCKVYVTGGRGSENGVSKDVWVYDTVHEEWSKAAPMLIARFGHGSAELENCLYVVGGHTSLAGVFPASPSVSLKQVEKYDPGANKWMMVAPLRDGVSNAAVVSAKLKLFVFGGTSIHRDMVSKVQCYDPSENRWTIKAECPQPWRYTAAAVLGSQIFIMGGDTEFTAASAYRFDCETNQWTRIGDMTAKRMSCHALASGNKLYVVGGYFGTQRCKTLDCYDPTSDTWNCITTVPYSLIPTAFVSTWKHLPA
Question: For B3, which binding (Xp/His-ELK3 [6]) is on record?
Answer: no binding
